Source: paper PMC4938177
No constants are given. Whether binding was seen depends on the method and setting. In cells and extracts the contact can be indirect. Some results given as binding are weak or reduced against the parent protein; the word gives no strength. Where a sequence is shown, tags or fusion partners need not be part of it.

Sequences of proteins named here, by UniProt entry; tags and fusion partners are left off. Residues count along the entry.
UniProt O09165, residues 35-405: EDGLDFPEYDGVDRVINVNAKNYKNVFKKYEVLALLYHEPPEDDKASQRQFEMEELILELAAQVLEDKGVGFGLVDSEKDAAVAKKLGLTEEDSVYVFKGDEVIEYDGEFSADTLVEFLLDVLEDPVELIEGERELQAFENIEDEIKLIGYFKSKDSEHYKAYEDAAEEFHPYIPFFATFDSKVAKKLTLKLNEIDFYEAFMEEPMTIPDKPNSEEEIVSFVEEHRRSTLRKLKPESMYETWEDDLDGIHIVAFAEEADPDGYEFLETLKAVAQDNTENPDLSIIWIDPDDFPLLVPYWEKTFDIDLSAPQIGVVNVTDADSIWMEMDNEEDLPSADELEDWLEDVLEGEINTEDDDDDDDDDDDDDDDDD

T1: GST-JP45 fusion protein encompassing JP45 C-terminal domain (amino acid residues 149-332) (UniProt Q3MI48)
T1 sequence: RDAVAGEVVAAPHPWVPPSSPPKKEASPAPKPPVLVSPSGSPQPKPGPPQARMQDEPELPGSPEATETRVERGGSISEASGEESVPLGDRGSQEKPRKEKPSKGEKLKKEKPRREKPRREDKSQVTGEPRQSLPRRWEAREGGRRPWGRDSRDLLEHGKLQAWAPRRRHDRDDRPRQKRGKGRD


Key:
[1] = biological target: T1, GST-JP45 fusion protein encompassing JP45 C-terminal domain (amino acid residues 149-332); assay: pull-down; GST-JP45 C-terminal domain on beads with solubilised SR proteins in 130 mM KCl, 20 mM NaCl, at 100 μM Ca2+; only the target purified
[2] = biological target: T1, GST-JP45 fusion protein encompassing JP45 C-terminal domain (amino acid residues 149-332); assay: pull-down; as a1 but with 1 mM EGTA instead of CaCl2 (nanomolar calcium): 50 mM Tris-HCl pH 8.5, 1 mM DTT, 20 mM NaCl, 0.1% CHAPS; only the target purified
[3] = biological target: T1, GST-JP45 fusion protein encompassing JP45 C-terminal domain (amino acid residues 149-332); assay: pull-down; GST-JP45 C-terminal domain on beads with solubilised SR proteins in 130 mM KCl, 20 mM NaCl, at the highest Ca2+ of the series (1 mM for CASQ1 of 0.1, 0.5, 1 mM; 0.5 mM for CASQ2 of 0.05, 0.1, 0.5 mM); only the target purified
[4] = biological target: T1, GST-JP45 fusion protein encompassing JP45 C-terminal domain (amino acid residues 149-332); assay: pull-down; GST fusion protein (or GST) on glutathione-Sepharose beads incubated with CHAPS-solubilised SR proteins; 50 mM Tris-HCl pH 8.5, 1 mM DTT, 20 mM NaCl, 0.1% CHAPS, 1 mM CaCl2; 2 h at 4 °C; immunoblot with anti-CASQ1 or anti-CASQ2; only the target purified
[5] = biological target: T1, GST-JP45 fusion protein encompassing JP45 C-terminal domain (amino acid residues 149-332); assay: pull-down; as Fig. 6 panels A and B, but solubilisation and interaction with the GST-JP45 fusion protein in the presence of 1 M NaCl; only the target purified

Row | binding [1] | binding [2] | binding [3] | binding [4] | binding [5] | Molecule
1 | binds weakly | binds weakly | binds | binds |  | calsequestrin 1 (CASQ1), skeletal isoform (from UniProt O09165 35-405)
2 | binds weakly | binds weakly | binds | binds | no binding (condition: with 1 M NaCl) | calsequestrin 2 (CASQ2), cardiac isoform (protein, UniProt O09161 20-415) EEGLNFPTYDGKDRVVSLSEKNLKQMLKRYDLLCLYYHEPVSSDKVSQKQFQLKEIVLELVAQVLEHKNIGFVMVDSRKEAKLAKRLGFSEEGSLYVLKGDRTIEFDGEFAADVLVEFLLDLIEDPVEIVNNKLEVQAFERIEDQTKLLGFFKNEDSEYYKAFQEAAEHFQPYIKFFATFDKAVAKKLSLKMNEVGFYEPFMDEPNVIPNKPYTEEELVEFVKEHQRPTLRRLRPEDMFETWEDDLNGIHIVAFAEKSDPDGYEFLEILKQVARDNTDNPDLSILWIDPDDFPLLVAYWEKTFKIDLFKPQIGVVNVTDADSIWMEIPDDDDLPTAEELEDWIEDVLSGKINTEDDDNEDEDDDGDDNDDDDDDDDDNDNSDEDNEDSDDDDDDDE
